Laboratory results as given in PubChem BioAssay AID1645882 (National Center for Advancing Translational Sciences (NCATS), 2021).
Values joined by “and” are separate entries in the source; they are usually repeats but may differ in a detail not shown here. Equal entries are not always repeated. The campaign covered roughly 16,000 compounds. About 120 (0.75%) were called active. Roughly 4% stayed inconclusive and do not appear here. The call rests on the fitted dose curve; in most records, active means well fitted inhibition curve with a large enough effect; inconclusive means small, poorly fitted or top-dose-only effect; inactive means no such curve, though single readings can be large or run the other way. The list shows a part of the results. A structure can be active in one record and inactive in another.

biological target: Rap guanine nucleotide exchange factor 3 (Homo sapiens) (UniProt O95398); test: Validation qHTS for antagonist of cAMP-regulated guanine nucleotide exchange factor 3 (EPAC1); settings: EPAC1 Rap1B-BODIPY-GDP exchange, fluorescence; series mostly up to 150 µM; activity change, negative = inhibition: at the top concentration; further: nearly all actives have a fitted effect of over 75% in size;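 on activity change, negative = inhibition: plate controls were DMSO for no effect and ATA control for full effect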
In short: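 Nucleotide exchange followed as fluorescence loss when BODIPY-GDP leaves Rap1B (480 nm excitation, 540 nm emission), read at 5 min intervals over 30 min. Reaction: 100 nM EPAC1, 250 nM RAP1B-BODIPY-GDP, 50 uM GDP; ATA and DMSO define normalization.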
Potency means the concentration at half of the fitted maximal effect.

Chain of UniProt O95398 (O95398 whole entry, looked up): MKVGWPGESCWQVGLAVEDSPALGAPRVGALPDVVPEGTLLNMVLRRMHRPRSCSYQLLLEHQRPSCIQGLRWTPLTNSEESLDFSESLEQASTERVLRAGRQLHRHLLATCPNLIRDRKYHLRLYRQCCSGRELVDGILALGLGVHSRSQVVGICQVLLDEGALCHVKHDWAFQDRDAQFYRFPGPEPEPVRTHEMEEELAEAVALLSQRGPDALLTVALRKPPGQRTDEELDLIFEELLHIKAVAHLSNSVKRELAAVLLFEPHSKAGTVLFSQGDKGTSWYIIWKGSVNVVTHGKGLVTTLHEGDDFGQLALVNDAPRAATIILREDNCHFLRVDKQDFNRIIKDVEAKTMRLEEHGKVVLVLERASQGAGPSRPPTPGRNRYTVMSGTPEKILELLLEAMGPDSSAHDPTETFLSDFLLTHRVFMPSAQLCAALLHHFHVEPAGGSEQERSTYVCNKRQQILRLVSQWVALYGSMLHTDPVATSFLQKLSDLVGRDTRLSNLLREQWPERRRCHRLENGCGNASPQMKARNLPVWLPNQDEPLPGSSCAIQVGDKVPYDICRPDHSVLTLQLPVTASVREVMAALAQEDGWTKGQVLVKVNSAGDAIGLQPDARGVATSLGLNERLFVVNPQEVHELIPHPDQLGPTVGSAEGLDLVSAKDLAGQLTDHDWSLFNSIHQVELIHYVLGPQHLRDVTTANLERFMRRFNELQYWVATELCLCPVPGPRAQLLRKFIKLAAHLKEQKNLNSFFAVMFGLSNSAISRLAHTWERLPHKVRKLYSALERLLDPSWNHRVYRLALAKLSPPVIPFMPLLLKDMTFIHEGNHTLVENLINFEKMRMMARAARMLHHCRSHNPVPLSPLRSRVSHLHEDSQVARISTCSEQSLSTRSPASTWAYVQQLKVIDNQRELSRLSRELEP

| SMILES | activity change, negative = inhibition | Potency |
| --- | --- | --- |
| CCc1cccc2c(C(O)(c3c[nH]c4c(CC)cccc34)c3c[nH]c4c(CC)cccc34)c[nH]c12 | inactive: -0.649% |  |
| c1ccc(-c2cccc(N3CCC4(CCNCC4)CC3)c2)cc1 | inactive: 16.5% |  |
| CO/N=C(\C(=O)N[C@@H]1C(=O)N2C(C(=O)[O-])=C(C[n+]3ccc(N)n3CCO)CS[C@H]12)c1csc(N)n1 | inactive: 18.1% |  |
| c1ccc(CNc2ncnc3ccc(-c4ccoc4)cc23)cc1 | inactive: 4.34% |  |
| COc1ccc(-c2cc3ncc(C)n3c(Nc3ncccc3C(N)=O)n2)cc1OC | inactive: -1.24% [at 75.8 µM] |  |
| CN(C)c1ncc2nc(-c3ccc(F)cc3)c(=O)n(-c3ccccc3)c2n1 | inactive: 51.6% |  |
| O=C1CCNCCN1[C@H](CO)Cc1ccccc1 | inactive: 11% |  |
| CCc1cc(C(=O)N2CCOc3ccc(CN4CCN(Cc5ccccn5)CC4)cc3C2)no1 | inactive: 10% |  |
| O=C(NCc1nnc2n1CCN(C(=O)c1cccc(Cl)c1)CC2)C1CC1 | inactive: -8.32% |  |
| CN(C)CC/C=C1\c2ccccc2Sc2ccc(Cl)cc21 | inactive |  |
| c1ccc([C@H]2CN3CCSC3=N2)cc1 | inactive |  |
| CN1C[C@H]2c3ccccc3Oc3ccc(Cl)cc3[C@@H]2C1 | inactive: -2.83% |  |
| Cc1oc(-c2ccccc2NC(=O)c2ccccn2)nc1CNC(=O)c1cccc(C#CC(C)(C)O)c1 | inactive: -6.52% |  |
| CC[C@]1(O)C[C@@H]2CN(CCc3c([nH]c4ccccc34)[C@](C(=O)OC)(c3cc4c(cc3OC)N(C=O)[C@H]3[C@@](O)(C(=O)OC)[C@H](C(=O)OC)[C@@]5(CC)C=CCN6CC[C@]43[C@H]65)C2)C1 | inactive: -5.71% |  |
| O=S1(=O)CCO[C@H]2Cc3ccccc3[C@H]2N1Cc1ccccc1Br | inactive: 5.3% |  |
| CCC(=O)O[C@]1(C(=O)CCl)[C@@H](C)C[C@H]2[C@@H]3CCC4=CC(=O)C=C[C@]4(C)[C@@]3(F)[C@@H](O)C[C@@]21C | inactive: -9.91% |  |
| Cc1c(C(=O)NCC2(N3CCOCC3)CCCC2)cnn1-c1nccc(-c2ccccc2F)n1 | inactive: -12.7% |  |
| CC(=O)OC1CC(OC(C)=O)[C@]2(C)C(CC(=O)[C@]3(C)C2CC[C@@]2(C)C(c4ccoc4)OC(=O)C4O[C@@]423)C1(C)C (some centres not stated) | inactive: 0.54% |  |
| Cc1ccc([N+](=O)[O-])cc1S(=O)(=O)N(C)C | inactive: -6.37% [at 75.8 µM] |  |
| CC#C[C@]1(O)CC[C@H]2[C@@H]3CCC4=CC(=O)CCC4=C3[C@H](c3ccc(N(C)C)cc3)C[C@@]21C | inactive: -2.1% |  |
| CN(C)c1nc2cc3c(cc2cc1CN(CC1CCCO1)C(=O)c1cccc(F)c1)OCO3 (configuration not stated) | inactive: 13.3% |  |
| O=C(c1ccncc1)N1CCC2(CCC(CNC(=O)C3(N4CCOCC4)CCCCC3)O2)CC1 (configuration not stated) | inactive: 6.11% |  |
| Cc1c(O)c(=O)ccn1C | inactive: 6.69% |  |
| COc1cc(=O)n2c(c1C(=O)NC(C)c1ccco1)CCN(C(=O)c1[nH]c(C)cc1C)CC2 (configuration not stated) | inactive: -1.48% |  |
| C#C[C@]1(OC(C)=O)CCC2C3CCC4=CC(=O)CCC4C3CC[C@]21C (some centres not stated) | inactive: -12.6% |  |

| SMILES | activity change, negative = inhibition | Potency |
| --- | --- | --- |
| C=C(Nc1ccc(OCC)cc1)Nc1ccc(OCC)cc1 | inactive |  |
| O=C(c1cc(C(F)(F)F)cc(C(F)(F)F)c1)N1CCC2(CCCN(Cc3ccncc3)C2)CC1 | inactive: -1.48% |  |
| Cn1c(=O)c(-c2cccs2)nc2cnc(N3CCNCC3)nc21 | inactive: 23.4% |  |
| COc1ccc(C(=O)N2CCC3(CCN(Cc4ccccc4)CC3)CC2)cc1 | inactive: 12.4% |  |
| O=C(O)CCCCCCCCc1cn(CN2C(=O)c3ccccc3C2=O)nn1 | inactive: 6.62% |  |
| O=C(O)C=Cc1ccc(Cn2ccnc2)cc1 | inactive: 7.55% |  |
| Cc1ncc2c(c1CNS(=O)(=O)N(C)C)CCN(C(=O)c1ccccc1F)C2 | inactive: 26.7% |  |
| Oc1cc2c(cc1O)[C@H](c1ccccc1)CNCC2 | inactive: 0.272% |  |
| COc1ccccc1CC(Cc1nc2ccccc2[nH]1)c1nc2ccccc2[nH]1 (configuration not stated) | inactive: -18.7% |  |
| COC(=O)c1ccc(CN2CCC3(CCC(CNC(=O)c4ccccc4)O3)CC2)cc1 (configuration not stated) | inactive: 14.2% |  |
| COC(=O)N1CCC[C@@]2(CCN(Cc3cc(C(F)(F)F)cc(C(F)(F)F)c3)C2)C1 | inactive: 11.1% |  |
| COCc1c(C(=O)N2CCCC(C)C2)cnn1-c1nccc(-c2cc(C)sc2C)n1 (configuration not stated) | inactive: 9.72% |  |
| OC(c1cccnc1)c1ccc2c(c1)CN(Cc1ccc(-c3ccccc3Cl)o1)CCO2 (configuration not stated) | inactive: 7.6% |  |
| c1ccc(C(c2ccccc2)N2CCC3(CCNCC3)CC2)cc1 | inactive: 4.21% |  |
| Clc1ccccc1-c1nccc(NCc2cccs2)n1 | inactive: -8.7% |  |
| COCCNc1nc(-c2ccccc2C(F)(F)F)nc2ccccc12 | inactive: 9.31% |  |
| N#CCCn1c(=O)c(CCc2ccccc2)nc2cnc(Oc3cccc(Cl)c3)nc21 | inactive: 4.21% |  |
| CS(=O)(=O)c1ccc(-c2cccc3c2OC(CNC(=O)c2ccnc(Cl)c2)C3)cc1 (configuration not stated) | inactive: 10.5% |  |
| COc1cccc(-c2ccc3ncnc(N(C)Cc4ccco4)c3c2)c1 | inactive: 1.61% |  |
| COc1cccc(Cn2c(=O)cnc3cnc(Nc4ccccc4)nc32)c1 | inactive: 23.1% |  |
| O=C1CC(c2ccc(O)c(O)c2)Oc2cc(O)cc(O)c21 (configuration not stated) | inactive: 11.3% |  |
| C=C[C@]1(C)CC(=O)[C@@]2(O)[C@@]3(C)C(O)CCC(C)(C)C3C(O)C(OC(C)=O)[C@@]2(C)O1 (some centres not stated) | inactive: 5.86% |  |
| COc1ccc(C2CNC(=O)C2)cc1OC1CCCC1 (configuration not stated) | inactive |  |
| CC(/C=C/c1cccc(Oc2ccc(F)cc2)c1)N(O)C(N)=O (configuration not stated) | inactive |  |
| CCN(CC)c1ncnc2c1ncn2[C@@H]1O[C@H](COP(=O)(O)OP(=O)(O)C(Br)(Br)P(=O)(O)O)[C@@H](O)[C@H]1O | inactive: 11.9% [at 75.8 µM] |  |

| SMILES | activity change, negative = inhibition | Potency |
| --- | --- | --- |
| O=c1c(O)c(-c2ccc(O)cc2O)oc2cc(O)cc(O)c12 | inactive |  |
| CC(C)c1c(C(=O)NCCN2CCOCC2)cnn1-c1nccc(-c2cccs2)n1 | inactive: 12.6% |  |
| Cc1cnc(CNc2ccnc(-c3ccccc3C)n2)cn1 | inactive: -3.59% |  |
| CCNc1ncc2nc(-c3ccccc3)c(=O)n(Cc3cccc(OC)c3)c2n1 | inactive: -1.66% |  |
| COC(=O)c1cc(CNC(=O)c2ccc3ncccc3c2)cc(NC(=O)c2ccccc2Cl)c1 | inactive: 2.03% |  |
| COc1ccc(CNc2nc(-c3ccc4c(c3)OCO4)nc3ccccc23)c(OC)c1 | inactive: -0.619% |  |
| CC(C)C[C@@H](CO)N1CCN(Cc2cccc(C#N)c2)CCC1=O | inactive: 16.5% |  |
| CCOC(=O)c1c[nH]c2cc(OCC(C)C)c(OCC(C)C)cc2c1=O | inactive: 11.4% |  |
| Cc1noc(C)c1-c1cncnc1N(C)Cc1ccco1 | inactive: 0.989% |  |
| CC(=O)C1CCC2C3CCC4=CC(=O)CC[C@@]4(C)C3CC[C@]12C (some centres not stated) | inactive: -1.63% |  |
| Cc1c(C(=O)NCC(C)(C)N2CCOCC2)cnn1-c1ncc2c(n1)-c1ccccc1CCC2 | inactive: 9.25% |  |
| Cc1cccc(-c2cnc(C)nc2C2CCCN(C(=O)c3cccc(Cn4cccn4)c3)C2)c1 (configuration not stated) | inactive: 11.4% |  |
| CC(=O)c1ccc(F)c(-c2cc(C)cc3c2OC(CNC(=O)c2ccnn2C)C3)c1 (configuration not stated) | inactive: -6.99% |  |
| COc1ccc(-c2coc3cc(OC)cc(OC)c3c2=O)cc1 | inactive: -7.54% |  |
| O=c1c(O)c(-c2ccccc2)oc2cc(O)ccc12 | inactive: 16.4% |  |
| COc1cc(CN2CCCC(c3nc(-c4ccncc4)ncc3-c3ccccc3)C2)ccc1O (configuration not stated) | inactive: 21.2% |  |
| NCC1O[C@H](O[C@@H]2C(O)[C@H](O[C@H]3OC(CO)C(O)C(N)C3O)[C@@H](N)C[C@H]2N)[C@@H](N)CC1O (some centres not stated) | inactive: 9.93% |  |
| O=S1(=O)CCO[C@H]2Cc3ccccc3[C@H]2N1Cc1cccc(Cl)c1 | inactive: -2.75% |  |
| Cc1c(C(=O)N(C)Cc2nccs2)sc2ncnc(NCC3CCCO3)c12 (configuration not stated) | inactive: 13.6% |  |
| Cc1cc(-c2ccnc(-n3ncc(C(=O)NC(C)(C)CO)c3C3CC3)n2)c(C)s1 | inactive: 7.57% |  |
| Cn1c(=O)c(-c2ccc(F)cc2)nc2cnc(OCc3ccccc3)nc21 | inactive: 20.7% |  |
| CCNc1ncc2nc(-c3ccccc3)c(=O)n(C3CC3)c2n1 | inactive: 13.2% |  |
| O=C(O)C#CC(=O)O | inactive: 15.7% |  |
| CN(C)c1ncc2nc(-c3ccc(Cl)cc3)c(=O)n(Cc3ccc(F)cc3)c2n1 | inactive: 21.2% |  |
| Cn1ccc2cc(NC(=O)Nc3cccnc3)ccc21 | inactive: 2.44% |  |

| SMILES | activity change, negative = inhibition | Potency |
| --- | --- | --- |
| COc1ccc(SCCN2CC[C@@H](C)CCC2=O)cc1 | inactive: 5.35% |  |
| O=CC(=O)c1ccc(Cl)cc1 | inactive: 20.5% |  |
| CN1C(CSCC(F)(F)F)Nc2cc(Cl)c(S(N)(=O)=O)cc2S1(=O)=O (configuration not stated) | inactive: 26.5% |  |
| CC(=O)[C@]1(O)Cc2c(O)c3c(c(O)c2[C@@H](O[C@H]2C[C@H](N)[C@H](O)[C@H](C)O2)C1)C(=O)c1ccccc1C3=O | inactive |  |
| CN(C)c1ncc2nc(-c3ccc(F)cc3)c(=O)n(C)c2n1 | inactive: 14.1% |  |
| Cc1ccc(CN2C[C@H](Sc3ccccn3)C[C@H]2C(=O)Nc2ccc3sc(C)nc3c2)c(C)c1 | inactive: 2.23% |  |
| COc1ccccc1CN1CCCC2(CCN(C(=O)c3cc(C(F)(F)F)cc(C(F)(F)F)c3)CC2)C1 | inactive: -8.73% |  |
| OC1(c2ccc3c(c2)CN(Cc2nccs2)CCO3)CCN(c2ccccc2F)CC1 | inactive: 2.66% |  |
| COc1ccccc1CN1CCCC2(CCN(C(=O)c3ccco3)CC2)C1 | inactive: 9.3% |  |
| CC(=O)OC1CC2C(C)(C)C(O)CC[C@@]2(C)C2CC[C@@]3(C)C(c4ccoc4)OC(=O)C4O[C@@]43[C@]12C (some centres not stated) | inactive: -3.16% |  |
| O=C1c2ccccc2C(=O)c2c1ccc(O)c2O | inactive: 12.3% |  |
| COc1cccc(N2[C@@H](CC(=O)O)c3ccccc3S2(=O)=O)c1 | inactive: 15.5% |  |
| Nc1nc(=S)c2[nH]cnc2[nH]1 | inactive |  |
| O=c1c2cc(O)c(O)cc2oc2cc(O)c(C3OC(CO)C(O)C(O)C3O)c(O)c12 (configuration not stated) | inactive: 22.6% |  |
| O=C(Nc1ccccc1)N1CC[C@@]2(CCCN(C(=O)c3cccc(F)c3)C2)C1 | inactive: 17.9% |  |
| O=[N+]([O-])c1ccc2c(c1)C=CC2 | inactive: -20.6% |  |
| N=c1c[n+](N2CCOCC2)[n-]o1 | inactive: 4.62% [at 75.8 µM] |  |
| O=C(c1cc(C(F)(F)F)cc(C(F)(F)F)c1)N1CCC2(CCN(Cc3ccccc3)CC2)CC1 | inactive: 8.89% |  |
| Clc1ccc2nc(-c3ccccc3)[nH]c2c1 | inactive: 3.75% |  |
| CN1CCN(CCCN2c3ccccc3Sc3ccc(Cl)cc32)CC1 |  | inactive and active: 112 µM |
| CCN(c1ccccc1)c1cc(NC)[n+](C)c(C)n1 | inactive: 10.3% |  |
| CC(=O)OCC1=C(C(=O)O)N2C(=O)C(NC(=O)CSc3ccncc3)[C@@H]2SC1 (some centres not stated) | inactive: 14.9% |  |
